Measurements: PubChem BioAssay AID540317 (National Center for Advancing Translational Sciences (NCATS), 2011)
Where “and” joins values, the source holds several entries; their conditions need not be identical. Equal entries are not always repeated. In all, about 390,000 compounds went through this assay and about 2,200 (0.56%) were called active. Inconclusive means that the source gave no clear call. Such entries were picked first, then a sample of the others. Calls follow the shape of the dose curve; as a rule, active = well fitted inhibition curve with a large enough effect; inconclusive = small, poorly fitted or top-dose-only effect; inactive = no such curve, though single readings can be large or run the other way. Potencies beside an inconclusive call are fits to weak or partial responses and may not hold up.

target: Chromobox protein homolog 1 (Homo sapiens) (UniProt P83916); experiment: HTS for Inhibitors of HP1-beta Chromodomain Interactions with Methylated Histone Tails; conditions: AlphaScreen HP1-beta / biotin-H3K9me3 peptide binding; series mostly up to 114 µM; also: nearly all actives have a fitted effect of over 70% in size
Outline: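 AlphaScreen: HP1-beta (50 nM) preformed 30 min with biotin-H3(1-18)K9me3 peptide (50 nM) in PBS pH 7.4, 0.01% Tween-20. Compound added for 30 min at RT, then streptavidin donor/nickel chelate acceptor beads (10 ug/mL) for 30 min.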
Potency is read from the fitted curve at half-maximal effect; tags tell the direction and shape of the fitted curve.

Chain of UniProt P83916 (P83916 whole entry, looked up): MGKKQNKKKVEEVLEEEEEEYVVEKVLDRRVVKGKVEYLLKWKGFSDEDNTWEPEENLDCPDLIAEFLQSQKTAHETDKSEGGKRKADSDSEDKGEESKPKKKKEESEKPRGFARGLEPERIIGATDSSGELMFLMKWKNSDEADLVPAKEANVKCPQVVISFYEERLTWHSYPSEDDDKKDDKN

Structure (SMILES) | Potency
Cc1cc(NC(=O)c2ccc(C#N)cc2)n(-c2ccccn2)n1 | inactive
Cc1cc(OCCN2CCOCC2)ccc1[N+](=O)[O-] | inconclusive: 15.8 µM [inhibitor, full curve]
Cc1cccc(OCc2nc(C#N)c(N3CCCC3)o2)c1 | inconclusive: 50.1 µM [inhibitor, partial curve]
COc1ccc(C2CC(=O)N3CN(Cc4ccco4)CSC3=C2C#N)cc1 (stereo unspecified) | inconclusive: 3.16 µM [inhibitor, full curve, poor fit]
COc1cc(/C=C2\SC(=O)N(c3cccc(Cl)c3)C2=O)cc([N+](=O)[O-])c1O | inconclusive: 25.1 µM [inhibitor, partial curve, poor fit]
CCCCN(C(=O)CSc1ncn[nH]1)c1c(N)n(Cc2ccccc2)c(=O)[nH]c1=O | inactive
O=C(/C=C/c1ccc(Cl)cc1)N1CCN(c2ccccc2[N+](=O)[O-])CC1 | inconclusive: 39.8 µM [inhibitor, partial curve]
Cc1ccccc1OCC(=O)NNC(=O)c1cc(S(=O)(=O)N2CCOCC2)ccc1N1CCCC1 | inactive
O=[N+]([O-])c1ccccc1/C=C/C=N/Nc1nc(N2CCCCC2)nc(N2CCCCC2)n1 | inconclusive: 22.4 µM [inhibitor, full curve]
COc1cc2c(cc1N)-c1ccc(N)cc1C2 | inconclusive: 44.7 µM [inhibitor, partial curve, poor fit]
COc1ccc(-c2ccc(N(C)C)cc2)cc1[C@H]1[C@@H]2C=CCC[C@@]2(C)C(=O)N1Cc1ccccc1 | inconclusive: 15.8 µM [inhibitor, full curve, poor fit]
O=C(O)c1cnccn1 | inconclusive: 31.6 µM [inhibitor, full curve]
COc1ccccc1OCC#CCn1ccnc1 | inconclusive: 28.2 µM [inhibitor, single point]
Oc1ccc(-c2csc(Nc3cccc4ccccc34)n2)cc1O | inconclusive: 35.5 µM [inhibitor, partial curve]
COc1ccc(/C=C2\C(=O)NC(=S)N2C(=O)c2ccc(C)cc2)cc1 | inactive
O=[N+]([O-])c1ccccc1/C=C/C=N/n1c(-c2ccccc2)n[nH]c1=S | inconclusive: 35.5 µM [inhibitor, partial curve]
CCOC(=O)C1CCCN(CCC(C)c2ccccc2)C1 (stereo unspecified) | inconclusive: 20 µM [inhibitor, full curve]
O=C(c1cc(-c2ccncc2)nc2ccccc12)N1CCN(c2ccccc2O)CC1 | inactive
O=c1c2sccc2[nH]c(=S)n1Cc1ccccc1 | inactive
CN(C)c1ccc(CNC(=O)C2CCN(S(=O)(=O)c3ccc4[nH]c(=O)ccc4c3)CC2)cc1 | inactive
COc1cc(/C=N/N2C(=O)CSC2=S)cc(Br)c1O | inconclusive: 56.2 µM [inhibitor, partial curve, poor fit]
CCN(CC)c1cc(Cl)c2nonc2c1N | inconclusive: 50.1 µM [inhibitor, partial curve]
COc1cc(C(=O)N2CCN(C3CCC(C)CC3)CC2)cc(OC)c1OC (stereo unspecified) | inconclusive: 15.8 µM [inhibitor, partial curve, poor fit]
CCCCNCCOCCOc1ccc(C)cc1[N+](=O)[O-] | inconclusive: 89.1 µM [inhibitor, single point]

Structure (SMILES) | Potency
COc1ccc(C(=O)Oc2ccc(C(=S)N3CCOCC3)cc2)cc1 | inconclusive: 8.91 µM [inhibitor, full curve]
COc1cc(C2c3c(oc4ccccc4c3=O)C(=O)N2Cc2ccc(C)cc2)ccc1O (stereo unspecified) | inconclusive: 89.1 µM [inhibitor, single point]
Cc1ccc(NC(=O)COCC(=O)Nc2ccc(C)cc2)cc1 | inactive
C=CCc1ccccc1OCCn1ccnc1 | inconclusive: 70.8 µM [inhibitor, partial curve]
CN(C1CCCCC1)S(=O)(=O)c1cccc(C#N)c1 | inactive
Cc1ccc(NC(=O)c2c(C)oc3ncn(CC(C)C)c(=O)c23)nc1 | inactive
C/C(=N\NC(=O)CSCc1ccccc1Cl)c1cc(O)ccc1O | inconclusive: 50.1 µM [inhibitor, partial curve]
CCCOc1ccc(Oc2cc(C)nc(SC)n2)nn1 | inconclusive: 31.6 µM [inhibitor, single point]
O=C1C(Cl)=C(N2CCCCC2)C(=O)C(Cl)=C1c1cnc(N2CCCCC2)s1 | inconclusive: 7.94 µM [inhibitor, full curve, poor fit]
O=C(NNc1c([N+](=O)[O-])cc(C(F)(F)F)cc1[N+](=O)[O-])c1ccco1 | inconclusive: 22.4 µM [inhibitor, full curve]
Brc1ccc(CN2CCSCC2)cc1 | inconclusive: 70.8 µM [inhibitor, single point]
CN1CCN(Cc2nc3ccccc3c(=O)n2Cc2nc(-c3ccc4ccccc4c3)cs2)CC1 | inconclusive: 31.6 µM [inhibitor, partial curve] and inconclusive: 22.4 µM [inhibitor, full curve]
CCNc1cc2c(cc1O)CCC1C2CCC2(C)C(O)CCC12 (stereo unspecified) | inconclusive: 79.4 µM [inhibitor, partial curve]
COc1cc(NC(=O)Cn2nnnc2-c2ccccc2F)cc(OC)c1OC | inactive
COc1ccc(NC(=O)CN(C)CC(=O)Nc2cccc(C(C)=O)c2)cc1 | inconclusive: 31.6 µM [inhibitor, full curve]
O=C(NCc1cccc(F)c1)C1CCC(=O)N(C2CC2)C1 (stereo unspecified) | inactive
Cc1cc(Nc2ccc(O)cc2)ccc1N | active: 11.2 µM
CC(=O)N1CCc2cc(S(=O)(=O)NC(Cc3ccccc3)C(=O)NCc3ccccc3Cl)ccc21 (stereo unspecified) | inactive
CCc1ccc(-n2c(CCC(=O)O)ccc2-c2ccc(F)cc2)cc1 | inconclusive: 50.1 µM [inhibitor, partial curve, poor fit]
CC(C)c1nnc(NC(=O)Cc2ccc(Br)cc2)s1 | inconclusive: 39.8 µM [inhibitor, single point]
O=C(NCCc1ccc(Cl)cc1)c1ccc2[nH]c(=O)c(=O)[nH]c2c1 | inactive
Cc1ccc(C(=O)Nc2nc(-c3ccccc3)ns2)cc1 | inactive
CCCn1c(CN2CCN(C(=O)c3ccco3)CC2)nc2cc(S(=O)(=O)N(C)C)ccc21 | inconclusive: 79.4 µM [inhibitor, single point]
CC1=CC(C)(C)Nc2ccc(OC(=O)CN3C(=O)c4ccccc4C3=O)cc21 | inconclusive: 39.8 µM [inhibitor, single point]

Structure (SMILES) | Potency
CCCc1nnc(NC(=O)C2CC(=O)N(C3CCCC3)C2)s1 (stereo unspecified) | inactive
CNC(=O)CCSSCCC(=O)NC | inconclusive: 39.8 µM [inhibitor, full curve]
O=C1N=C(N2C=CC(=C3C=CNC=C3)C=C2)/C(=C/N=NC(=O)c2ccccc2O)S1 | active: 44.7 µM
O=S(=O)(Nc1cccc(S(=O)(=O)N2CCCCCC2)c1)c1ccc(F)cc1F | inconclusive: 79.4 µM [inhibitor, partial curve]
CCc1ccccc1N1CSC2=C(C#N)C(c3ccccc3F)CC(=O)N2C1 (stereo unspecified) | inconclusive: 17.8 µM [inhibitor, full curve]
COc1ccc(Nc2ccc(S(=O)(=O)N3CCCCC3)cc2[N+](=O)[O-])cc1 | inconclusive: 8.91 µM [inhibitor, full curve]
COc1cccc(NC(=O)c2c(C(=O)Nc3ccccc3)sc3nc(C)cc(=O)n23)c1 | inactive
Oc1ccc(C=NN=C2c3ccccc3-c3ccccc32)c(O)c1 | inconclusive: 39.8 µM [inhibitor, partial curve]
CCOC(=O)C1CCCN(Cc2ccccc2C)C1 (stereo unspecified) | inconclusive: 70.8 µM [inhibitor, partial curve, poor fit]
CC(C)CCN(C(=O)c1csnn1)C(C(=O)NC1CCCCC1)c1ccc(F)cc1 (stereo unspecified) | inactive
CCOc1ccc(-c2csc(Cn3c(CN4CCN(C)CC4)nc4ccccc4c3=O)n2)cc1 | inconclusive: 28.2 µM [inhibitor, partial curve]
O=[N+]([O-])c1cc(-c2nc(-c3ccncc3)no2)ccc1NCc1ccccc1 | inactive
C=CCN1C(=O)/C(=c2\sc3nc(=O)c(Cc4ccc(OC)c(OC)c4)nn3c2=O)c2ccccc21 | inconclusive: 14.1 µM [inhibitor, full curve]
Cn1c(N)c(C(=O)NCc2ccccc2)sc1=S | inconclusive: 15.8 µM [inhibitor, full curve]
COc1cccc(CN2CCN(c3ncccn3)CC2)c1OC | inconclusive: 15.8 µM [inhibitor, full curve, poor fit]
O=C(NNc1ccc([N+](=O)[O-])cc1)Nc1ccccc1 | inconclusive: 22.4 µM [inhibitor, full curve]
COc1ccc(CNC(=O)C(c2cccs2)N(Cc2ccco2)C(=O)Cc2cccs2)cc1 (stereo unspecified) | inconclusive: 70.8 µM [inhibitor, single point]
O=C(Cn1c(C(F)(F)F)nc2ccccc21)Oc1cccc(C(F)(F)F)c1 | inactive
O=C(NCc1ccccc1)[C@]1(C(F)(F)F)C[C@H](CCC2CCCCC2)CCCO1 | inactive
O=C(NCc1ccccn1)c1cc(S(=O)(=O)N2CCCCCC2)ccc1Cl | inactive
O=C1NC(=S)N/C1=C/c1cccnc1 | inactive
COc1ccccc1N(O)C1CC(=O)N(c2ccc(Br)cc2)C1=O (stereo unspecified) | inconclusive: 17.8 µM [inhibitor, full curve, poor fit]
O=C(c1ccccc1)N1CCN(c2ccc([N+](=O)[O-])c(NCc3cccnc3)c2)CC1 | inconclusive: 39.8 µM [inhibitor, single point]
